Data: article PMC4336329 (PLoS ONE, 2015)
The whole screen tested about 310,000 compounds, of which about 2,200 (0.71%) showed an effect of 50% or more. The effect is printed as a negative number. The list shows a part of the results. *1 amine or outer side, *2 acyl side, *3 side chain or, on linkers, in order; H or OH if unused. Where a SMILES comes first, the peptide text is derived from it. Bridges are numbered along the chain shown (N, C = ends). [ ]: non-standard residue; d: D form. ξ: configuration not given here. hSer(Ph(2-I,4-NO2,6-CO)) = O=C([C@H](CCOc1c(I)cc([N+](=O)[O-])cc1C(=O)[*:3])N[*:1])[*:2]; ξD = NC(CC(=O)O)C(=O)O

The compounds below were run against human ether-à-go-go-related gene (hERG) potassium channel (human, UniProt Q12809) (assay: primary screen, population patch clamp on CHO cells stably expressing hERG).
Sequence of human ether-à-go-go-related gene (hERG) potassium channel (Q12809 whole entry, looked up): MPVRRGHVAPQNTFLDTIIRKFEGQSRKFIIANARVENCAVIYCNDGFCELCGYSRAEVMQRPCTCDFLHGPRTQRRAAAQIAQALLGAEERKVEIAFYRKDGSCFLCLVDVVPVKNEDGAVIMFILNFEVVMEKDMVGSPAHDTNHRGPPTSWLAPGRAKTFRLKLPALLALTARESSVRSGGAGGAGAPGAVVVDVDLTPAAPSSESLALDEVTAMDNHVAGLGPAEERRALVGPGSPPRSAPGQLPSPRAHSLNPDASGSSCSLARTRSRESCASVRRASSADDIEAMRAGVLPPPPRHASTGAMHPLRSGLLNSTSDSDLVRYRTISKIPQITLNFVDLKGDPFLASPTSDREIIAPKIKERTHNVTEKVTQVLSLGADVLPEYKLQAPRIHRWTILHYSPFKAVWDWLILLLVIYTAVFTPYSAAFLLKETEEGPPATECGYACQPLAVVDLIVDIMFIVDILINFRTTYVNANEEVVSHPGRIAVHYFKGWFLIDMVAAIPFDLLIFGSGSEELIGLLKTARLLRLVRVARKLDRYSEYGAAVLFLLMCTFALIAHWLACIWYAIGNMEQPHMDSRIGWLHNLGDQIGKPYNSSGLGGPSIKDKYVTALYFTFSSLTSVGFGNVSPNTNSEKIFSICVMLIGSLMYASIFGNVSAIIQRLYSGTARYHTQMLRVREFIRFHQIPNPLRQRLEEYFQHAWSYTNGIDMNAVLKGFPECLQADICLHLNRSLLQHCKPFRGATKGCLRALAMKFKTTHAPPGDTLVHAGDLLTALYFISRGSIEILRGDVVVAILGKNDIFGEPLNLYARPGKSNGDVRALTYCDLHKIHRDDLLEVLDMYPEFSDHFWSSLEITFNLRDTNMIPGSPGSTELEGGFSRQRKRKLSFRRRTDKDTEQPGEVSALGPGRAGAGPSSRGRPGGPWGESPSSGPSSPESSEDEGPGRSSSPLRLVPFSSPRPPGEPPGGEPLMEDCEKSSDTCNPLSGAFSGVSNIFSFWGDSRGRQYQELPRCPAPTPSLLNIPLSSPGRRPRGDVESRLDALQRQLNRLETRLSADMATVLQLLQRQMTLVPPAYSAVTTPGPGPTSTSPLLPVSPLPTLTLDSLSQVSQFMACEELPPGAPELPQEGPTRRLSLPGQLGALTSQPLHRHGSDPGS

SMILES | hERG current change (%, negative = inhibition) at 1uM [%]
Cn1c(=O)c2c(nc(NCC3CCCC(CN)C3)n2Cc2ccc(Cl)cc2Cl)n(C)c1=O (centres unmarked) | 13
CC(C)n1c(N2CCN(C(=O)Nc3ccc(Cl)cc3)CC2)nc2ccccc21 | -31
COc1ccc(N2CCCn3c2nc2c3c(=O)n(CCCc3ccccc3)c(=O)n2C)cc1 | -13.1
Cc1ccc(-c2nc3ccccc3c(=O)n2-c2c(C)n(C)n(-c3ccccc3)c2=O)cc1 | 11.7
O=C(COC(=O)c1ccc([N+](=O)[O-])s1)NC(=O)NCc1ccccc1 | 4.33
O=C(Nc1ccccc1)N(Cc1cccnc1)Cc1ccco1 | 6.35
COc1cc2c(cc1OC)C(C(C)C)=NC(C)(C)C2.Cl | 10.2
Cc1c(CC(=O)NCC(=O)NCC(=O)O)c(=O)oc2c(C)c3oc4c(c3cc12)CCCC4 | 12.3
O=C(O)COc1ccc2c(-c3ccccc3)cc(=O)oc2c1 | 8.66
CCn1c(SCC#N)nc2ccccc2c1=O | 9.86
COCc1cc(=O)[nH]c(SCCS(=O)(=O)c2ccc(Cl)cc2Cl)n1 | 12.9
O=C(O)CN=C(NS(=O)(=O)c1ccccc1)c1ccccc1 | 0.367
C/C(=N\NC(=O)COc1ccc(C)cc1Br)c1cc([N+](=O)[O-])cs1 | 8.53
CCC(=O)NCCNC(=O)c1c(SC)nsc1SC | 1.89
Cc1cccc(OCCCC(=O)NNC(=O)c2ccccn2)c1 | 2.36
NC(=O)/C(=C\c1cccnc1)NC(=O)c1ccccc1 | 6.46
COc1ccc(N2CC(C(=O)NCCc3ccc(Cl)cc3)CC2=O)cc1 (centres unmarked) | -2.44
Br.N=c1n(N)c2ccccc2n1CC(=O)c1ccc(Br)cc1 | -2.41
Cc1ccccc1C(=O)Nc1nnc(CC(=O)N/N=C/c2cn(Cc3ccccc3)c3ccccc23)s1 | 12
CC(=O)Oc1ccc(-c2cc3ccccc3oc2=O)cc1 | 3.57
COc1ccc2[nH]c(C(=O)N3CCN(c4ccccc4F)CC3)c(C)c2c1 | 17.1

SMILES | hERG current change (%, negative = inhibition) at 1uM [%]
COCCCNS(=O)(=O)c1ccc2c(c1)CCN2C(C)=O | 11
C[C@@H]1NC(=O)[C@H](CC(N)=O)NC(=O)c2cc([N+](=O)[O-])cc(I)c2OCC[C@@H](C(=O)NC(CC(=O)O)C(N)=O)NC1=O (some centres unmarked) (NA[hSer(Ph(2-I,4-NO2,6-CO))][ξD]-NH2; lactam N-3) | 4.65
O=C(CNC(=O)c1ccc(Cl)cc1Cl)NCC1CCCO1 (centres unmarked) | 13.5
CCOC(=O)C1CCN(C(=O)c2ccc3c(SCC(=O)O)c4c(nc3c2)CCCC4)CC1 | 9.99
CCN(CC)S(=O)(=O)c1ccc(-c2nnc(SCc3nnc(-c4ccccc4)o3)o2)cc1 | 11.3
CSc1cccc(NS(=O)(=O)c2ccc3c(c2)NC(=O)C(C)C(=O)N3)c1 (centres unmarked) | 4.49
CC(C)C(=O)NC(c1cccc([N+](=O)[O-])c1)c1c(O)ccc2ccccc12 (centres unmarked) | 15.3
CC(=O)NC(=O)NC1CSCC1OC(C)=O (centres unmarked) | 14
COc1ccc(NC(=O)CS(=O)CC(=O)Nc2cccc3cccnc23)cc1 (centres unmarked) | 17.6
COc1ccc(CCNC(=O)COC(=O)C23CC4CC(CC(C4)C2)C3)cc1 | 5.52
COCCN(C(=S)Nc1ccc(C)cc1C)C(C)c1cccs1 (centres unmarked) | 5.92
Cn1c(COc2ccccc2O)[n+](C)c2ccccc21.[Br-] | 13.9
CC(C)COC(=O)COc1cc(Cl)c(Cl)cc1Cl | 11.7
CCOC(=O)c1c(S(=O)(=O)NCC(=O)N2CCN(c3ccc(F)cc3)CC2)c(C)n(C)c1C | 14.5
O=S(=O)(c1cccc2cccnc12)N1CCN(c2ccccc2)CC1 | 3.78
C=CCn1c(=O)c(C(=O)NCCNCC)c(O)c2ccccc21.Cl | 11.9
O=C(CN1CCN(c2ccccc2Cl)CC1)NC1CCCc2ccccc21.O=C(O)C(=O)O (centres unmarked) | 8.01
Cc1ccc(OCCC(=O)Nc2ccc(C)c(F)c2)cc1 | 14.3
CC(=O)c1ccc(S(=O)(=O)N(C)CCCC(=O)N(C)Cc2c(F)cccc2Cl)cc1 | 9.09
N/C(=N\OC(=O)c1ccccc1[N+](=O)[O-])c1ccccn1 | 13.7
CC(O)CNc1nc2ccccc2n1CC(=O)NC12CC3CC(CC(C3)C1)C2 (centres unmarked) | 8.58

SMILES | hERG current change (%, negative = inhibition) at 1uM [%]
CC1CCC(NC(=O)c2ccc(N3CCCC3=O)cc2)CC1 (centres unmarked) | 0.593
CCC(=O)N(Cc1cc2cc(C)c(C)cc2[nH]c1=O)C1CCCCC1 | 11.1
N/C(=N\OC(=O)c1cccs1)c1ccccc1 | -3.08
CCC(=O)Nc1cc(-c2nc3ncccc3o2)ccc1Cl | 8.53
CCOc1cc(Br)cc(/C=N/NC(=O)c2cccnc2)c1O | 1.54
OCCN(Cc1ccccc1)Cc1ccc(C(F)(F)F)cc1 | 11.1
Nc1nc(SCC(=O)Nc2cccc(Oc3ccccc3)c2)n[nH]1 | -0.41
CCCCc1ccc(S(N)(=O)=O)cc1 | 14.9
NC(=O)c1ccc(C(F)(F)F)n(Cc2ccc(F)c(F)c2)c1=O | 29.2
COc1cccc(CNC(=O)CN2C(=O)COc3ccc(S(=O)(=O)N4CCC(C)CC4)cc32)c1 | 15.4
O=C1c2ccccc2C(=O)N1OCc1ccccc1 | 9.5
O=C(CCC(=O)N1CCOc2ccc(Cl)cc21)NCCCN1CCN(Cc2ccccc2)CC1 | -63.7
CN1CCN(C(=O)c2cc3c(ccc4ccccc43)oc2=O)CC1 | 12.8
O=C(O)CCC(=O)N1CCN(S(=O)(=O)c2ccc3ccccc3c2)CC1 | 22.5
O=C(NCc1ccco1)C(c1cccnc1)N(C(=O)Cn1nnc2ccccc21)c1ccccc1 (centres unmarked) | 5.23
CC(NCc1cc(Br)ccc1OCC(=O)NCc1ccccc1)c1ccccc1.Cl (centres unmarked) | 7.24
CCOC(=O)c1c(C)[nH]c(C)c1C(=O)CSc1nc2ccccc2c(=O)n1-c1ccc(F)cc1 | 10.7
CC(C)OC(=O)CSc1nnc(-c2ccncc2)n1N | 11.3
COc1ccc(NC(=O)Nc2cc(NC(=O)Nc3ccc(OC)cc3)c(C)nc2C)cc1 | 12
CCC(C)(C)n1nnnc1C(c1cc2ccc(OC)cc2[nH]c1=O)N1CCc2ccccc2C1 (centres unmarked) | -2.06
CCN(c1ccccc1)S(=O)(=O)c1ccc(C(=O)NCC2(N(C)C)CCCCC2)cc1 | -2.37

SMILES | hERG current change (%, negative = inhibition) at 1uM [%]
CCn1c(=O)n(Cc2ccco2)c(=N)c2c3c(sc21)COC(C)(C)C3 | -12.2
O=C(NCCS(=O)(=O)NCCc1ccccc1)c1ccccc1 | 0.275
C(=N\N1CCN(Cc2cccc3ccccc23)CC1)/c1cccs1 | 4.6
Cn1c2ccccc2c2nnc(SCC(=O)NCc3ccoc3)nc21 | 10.4
C#Cc1ccc([C@@H]2C=C(C(=O)Nc3ccccc3)O[C@H](OCC)[C@H]2CCCO)cc1 | -2.28
CCCCCCSc1ccc([C@@H]2[C@H]3C(=O)N(C)C(=O)[C@H]3[C@]3(C(=O)OC)CCCCN23)cc1.O=C(O)C(F)(F)F | 1.84
COc1ccccc1NC(=O)N(Cc1ccccc1)c1ccccn1 | 17
CN(C)c1ccc(C(=O)OCC(=O)Nc2ccc(S(N)(=O)=O)cc2)cc1 | 14.2
COc1ccccc1NC(=O)C(=O)NNC(=O)COc1ccc2ccccc2c1 | 14
COC(=O)c1cc(-c2c(-c3ccc4c(c3)OCO4)noc2-c2ccsc2)cc([N+](=O)[O-])c1 | 9.81
O=C1CC(c2cccs2)CC(O)=C1C=NCCN1CCNCC1 (centres unmarked) | -0.684
COC(=O)Cn1c(=O)c2c(nc(Br)n2CC(=O)OC)n(C)c1=O | 6.24
CCC(C)[C@H](NS(=O)(=O)c1ccc(C)cc1)C(=O)N1CCC(C(=O)N2CCC(C(N)=O)CC2)CC1 (some centres unmarked) | 12
COc1cccc(NC(=O)C2C3C=CC4(O3)C2C(=O)N(CCCN2CCCCC2)C4C(=O)NC2CCCCC2)c1 (centres unmarked) | 8.34
C#CCOCCOCCOCCNc1nc(N2CCN(C(=O)[C@H](Cc3cc4ccccc4[nH]3)n3cc([C@@H](N)CC(C)C)nn3)CC2)nc(N2CCN(C(=O)[C@H](Cc3cc4ccccc4[nH]3)n3cc([C@@H](N)CC(C)C)nn3)CC2)n1.Cl | 14.7
O=C(NS(=O)(=O)Oc1cccc(F)c1)OC[C@@H]1CCCN2CCCCC12 (some centres unmarked) | 10.8
Nc1ccc(NC(=O)CCN2CCOCC2)cc1 | 10.3
COc1ccc(C(=O)O/N=C(/c2ccccc2)c2ccncc2)cc1 | 2.76
Cc1ccc2c(c1)c1c(n2CC(O)CNC(CO)(CO)CO)CCCC1 (centres unmarked) | 9.51
Cc1ccc(OCC(=O)N/N=C\c2cccn2C)c([N+](=O)[O-])c1 | 11
